According to patent publication US20240218065A1 (SHENGHE CHINA BIOPHARMACEUTICAL, published 2024):
Like-named read-outs stand apart in the source and are kept apart here.

How the values were obtained:
[1] = target: T1, IL-2Rβ (Acro, cat: CD2-H5221) (UniProt P14784 27-239); test: ELISA: IL-2Rβ coated at 3 µg/mL, antibody titrated 3-fold from 20 µg/mL, HRP goat anti-human IgG-Fc, OD450-OD570
T1 construct: Bought protein coated on the ELISA plate; also called IL-2Rβ receptor; IL-2Rβ protein
T1 sequence (looked up): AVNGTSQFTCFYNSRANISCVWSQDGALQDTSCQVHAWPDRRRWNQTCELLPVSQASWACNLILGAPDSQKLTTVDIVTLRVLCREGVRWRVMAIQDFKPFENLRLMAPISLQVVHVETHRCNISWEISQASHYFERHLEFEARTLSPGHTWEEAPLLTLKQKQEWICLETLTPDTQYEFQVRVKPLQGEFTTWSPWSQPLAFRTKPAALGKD
Description: (§1) IL-2Rβ (Acro, cat: CD2-H5221) receptor was diluted to 3 μg/mL with PBS buffer at pH 7.4, added into the 96-well ELISA plate at 100 μL per well, coated overnight at 4° C., and blocked with 1% BSA blocking solution for 1 hour. The plate was washed 3 times with PBST, and the constructed expressing antibody was diluted to 20 μg/mL with 0.5% BSA sample diluent as the starting concentration, and then diluted by 3-fold gradient (11 gradients in total). A negative control (blank well and IgG1 isotype control) and a positive control were set, and the positive control was a PD1 and IL-15 cytokine fusion protein (sequence consists of SEQ ID No. 25, SEQ ID No. 26, and SEQ ID No. 27), and incubated at 37° C. for 1 h at 100 μL per well. […] The absorbance value of each well in the 96-well plate was determined by selecting the wavelength of 450 nm and the reference wavelength of 570 nm on a multifunctional enzyme marker, and the absorbance value (OD)=OD₄₅₀ₙₘ−OD₅₇₀ₙₘ. The logarithm of the concentration of the constructed antibody was taken as the abscissa, and the measured absorbance value of each well was taken as the ordinate, and the Sigmoidaldose-response (Variable Slope) method (GraphPad Prism software, GraphPad Software, San Diego, California) was selected for nonlinear regression to obtain the binding curve of the target antibody to the IL-2Rβ receptor.

[2] = target: T1, IL-2Rβ (Acro, cat: CD2-H5221); test: as above; remark: listed apart in the source
Description: as §1

EC50 (read off the curve) [1]: ~0.7 µg/mL
EC50 (read off the curve) [2]: ~0.7 µg/mL
B1: PD1 and IL-15 cytokine fusion protein (other)
chain 1: QVQLVQSGVEVKKPGASVKVSCKASGYTFTNYYMYWVRQAPGQGLEWMGGINPSNGGTNFNEKFKNRVTLTTDSSTTTAYMELKSLQFDDTAVYYCARRDYRFDMGFDYWGQGTTVTVSSASTKGPSVFPLAPCSRSTSESTAALGCLVKDYFPEPVTVSWNSGALTSGVHTFPAVLQSSGLYSLSSVVTVPSSSLGTKTYTCNVDHKPSNTKVDKRVGGGGSGGGGS[about 120 residues not written out]GGGGSGGGGS[human IgG4 Fc with S228P T366W (EU numbers) not written out]
chain 2: QVQLVQSGVEVKKPGASVKVSCKASGYTFTNYYMYWVRQAPGQGLEWMGGINPSNGGTNFNEKFKNRVTLTTDSSTTTAYMELKSLQFDDTAVYYCARRDYRFDMGFDYWGQGTTVTVSSASTKGPSVFPLAPCSRSTSESTAALGCLVKDYFPEPVTVSWNSGALTSGVHTFPAVLQSSGLYSLSSVVTVPSSSLGTKTYTCNVDHKPSNTKVDKRVGGGGSGGGGSITCPPPMSVEHADIWVKSYSLYSRERYICNSGFKRKAGTSSLTECVLNKATNVAHWTTPSLKCIRGGGGS[human IgG4 Fc with S228P Y407A (EU numbers) not written out]
chain 3: EIVLTQSPATLSLSPGERATLSCRASKGVSTSGYSYLHWYQQKPGQAPRLLIYLASYLESGVPARFSGSGSGTDFTLTISSLEPEDFAVYYCQHSRDLPLTFGGGTKVEIKRTVAAPSVFIFPPSDEQLKSGTASVVCLLNNFYPREAKVQWKVDNALQSGNSQESVTEQDSKDSTYSLSSTLTLSKADYEKHKVYACEVTHQGLSSPVTKSFNRGEC
notes: also called the control
